Assay results taken from US20230113563A1 (SYSTIMMUNE, published 2023).

Key:
[1] = target: T1, EGFR on tumor cells (MDA-MB-231, HeLa) (UniProt P00533); assay: cell-based or functional assay
[2] = target: T1, EGFR on tumor cells (MDA-MB-231, HeLa); assay: cell-based or functional assay; remark: listed apart in the source

- TDCC EC50 (pM), MDA-MB-231 target cells, E:T 5 [1]: 0.018 pM
- TDCC EC50 (pM), HeLa target cells, E:T 10 [2]: 9 pM
B1: SI-55E2 (other)
heavy: DVVMTQSPSTLSASVGDRVTINCQASESISSWLAWYQQKPGKAPKLLIYEASKLASGVPSRFSGSGSGTEFTLTISSLQPDDFATYYCQGYFYFISRTYVNSFGGGTKVEIKGGGGSGGGGSGGGGSGGGGSEVQLVESGGGLVQPGGSLRLSCAASGFTISTNAMSWVRQAPGKGLEWIGVITGRDITYYASWAKGRFTISRDNSKNTLYLQMNSLRAEDTAVYYCARDGGSSAITSNNIWGQGTLVTVSTGGGGSGGGGSEVQLVQSGAEVKKPGASVKVSCKASGYRFTNYWIHWVRQAPGQGLEWIGGINPGNNYATYRRKFQGRVTMTADTSTSTVYMELSSLRSEDTAVYYCTREGYGNYGAWFAYWGQGTLVTVSSASTKGPSVFPLAPSSKSTSGGTAALGCLVKDYFPEPVTVSWNSGALTSGVHTFPAVLQSSGLYSLSSVVTVPSSSLGTQTYICNVNHKPSNTKVDKRV[human IgG1 Fc with changes cut from this listing]GGGGSGGGGSEVQLLESGGGLVQPGGSLRLSCAASGFSFSSGYDMCWVRQAPGKGLEWIACIAAGSAGITYDANWAKGRFTISRDNSKNTLYLQMNSLRAEDTAVYYCARSAFSFDYAMDLWGQGTLVTVSSGGGGSGGGGSGGGGSGGGGSDIQMTQSPSTLSASVGDRVTITCQASQSISSHLNWYQQKPGKAPKLLIYKASTLASGVPSRFSGSGSGTEFTLTISSLQPDDFATYYCQQGYSWGNVDNVFGGGTKVEIKGGGGSGGGGSGRSLVESGGGLVQPGGSLRLSCTASGFTISSYHMQWVRQAPGKGLEYIGTISSGGNVYYASSARGRFTISRPSSKNTVDLQMNSLRAEDTAVYYCARDSGYSDPMWGQGTLVTVSSGGGGSGGGGSGGGGSGGGGSDVVMTQSPSSVSASVGDRVTITCQASQNIRTYLSWYQQKPGKAPKLLIYAAANLASGVPSRFSGSGSGTDFTLTISDLEPGDAATYYCQSTYLGTDYVGGAFGGGTKVEIK
light: DVQVTQSPSSLSASVGDRVTITCRSSQSLANSYGNTFLSWYLHKPGKAPQLLIYGISNRFSGVPDRFSGSGSGTDFTLTISSLQPEDFATYYCLQGTHQPYTFGQGTKVEIKRTVAAPSVFIFPPSDEQLKSGTASVVCLLNNFYPREAKVQWKVDNALQSGNSQESVTEQDSKDSTYSLSSTLTLSKADYEKHKVYACEVTHQGLSSPVTKSFNRGEC
